Data as given in patent US7977372B2, “Ortho aminoamides for the treatment of cancer” (Hoffmann-La Roche Inc., priority 2009, dated 2011).
At least one read-out could not be matched to a standard name with certainty.

Tested on: p21 promoter-luciferase construct in HeLa cells
Test: p21 reporter gene induction assay
Assay type: cell-based
Conditions: compound at 3 micromolar; relative to SNDX-275; 15 hours

Row | SMILES | p21 RP3 (relative induction potency compared with SNDX-275)
1 | CN1CC(C(=O)Nc2ccc(F)cc2)C(c2ccc(/C=C/C(=O)Nc3ccccc3N)cc2)C1 (racemic) [Example 5, rac-(trans-3,4)-4-{4-[2-(2-Amino-phenylcarbamoyl)-vinyl]-phenyl}-1-methyl-pyrrolidine-3-carboxylic acid (4-fluoro-phenyl)-amide] | 2.54
2 | Nc1ccccc1NC(=O)/C=C/c1ccc(C2CN(CCF)CC2C(=O)Nc2ccc(Cl)cc2)cc1 (racemic) [Example 21, rac-(trans-3,4)-4-{4-[2-(2-Amino-phenylcarbamoyl)-vinyl]-phenyl}-1-(2-fluoro-ethyl)-pyrrolidine-3-carboxylic acid (4-chloro-phenyl)-amide] | 1.77
3 | CC(C)(CO)N1CC(C(=O)Nc2ccc(Cl)cc2)C(c2ccc(/C=C/C(=O)Nc3ccccc3N)cc2)C1 (racemic) [Example 26, rac-(trans-3,4)-4-{4-[2-(2-Amino-phenylcarbamoyl)-vinyl]-phenyl}-1-(2-hydroxy-1,1-dimethyl-ethyl)-pyrrolidine-3-carboxylic acid (4-chloro-phenyl)-amide] | 2.61
4 | CC(C)(C)N1CC(C(=O)Nc2ccc(Cl)cc2)C(c2ccc(/C=C/C(=O)Nc3ccccc3N)cc2)C1 (racemic) [Example 36, rac-(trans-3,4)-4-{4-[2-(2-Amino-phenylcarbamoyl)-vinyl]-phenyl}-1-tert-butyl-pyrrolidine-3-carboxylic acid (4-chloro-phenyl)-amide] | 1.62
5 | CN1C[C@@H](C(=O)Nc2ccc(Cl)cc2)[C@H](c2ccc(/C=C/C(=O)Nc3ccccc3N)cc2)C1 [Example 5-2] | 2.51
6 | CN1C[C@@H](C(=O)Nc2ccc(F)cc2)[C@H](c2ccc(/C=C/C(=O)Nc3ccccc3N)cc2)C1 [Example 5-8] | 2.10
7 | Cc1ccc(NC(=O)C2CN(C)CC2c2ccc(/C=C/C(=O)Nc3ccccc3N)cc2)cc1 (centres unmarked) [Example 5-19] | 2.62
8 | CN1CC(C(=O)Nc2ccc(Br)cc2)C(c2ccc(/C=C/C(=O)Nc3ccccc3N)cc2)C1 (centres unmarked) [Example 5-20] | 0.35
9 | Cc1cc(NC(=O)C2CN(C)CC2c2ccc(/C=C/C(=O)Nc3ccccc3N)cc2)ccc1F (centres unmarked) [Example 5-27] | 1.96
10 | Cc1cccc(NC(=O)C2CN(C)CC2c2ccc(/C=C/C(=O)Nc3ccccc3N)cc2)c1 (centres unmarked) [Example 5-28] | 3.53
11 | Cc1cc(NC(=O)C2CN(C)CC2c2ccc(/C=C/C(=O)Nc3ccccc3N)cc2)ccc1Cl (centres unmarked) [Example 5-29] | 2.07
12 | CN1CC(C(=O)Nc2ccc(F)c(Cl)c2)C(c2ccc(/C=C/C(=O)Nc3ccccc3N)cc2)C1 (centres unmarked) [Example 5-30] | 1.84
13 | CN1CC(C(=O)Nc2ccccc2)C(c2ccc(/C=C/C(=O)Nc3ccccc3N)cc2)C1 (centres unmarked) [Example 5-32] | 2.73
14 | COc1ccc(NC(=O)C2CN(C)CC2c2ccc(/C=C/C(=O)Nc3ccccc3N)cc2)cc1 (centres unmarked) [Example 5-33] | 1.66
15 | CN1CC(c2ccc(/C=C/C(=O)Nc3ccccc3N)cc2)C(c2ncc(-c3ccccc3)[nH]2)C1 (centres unmarked) [Example 11-2] | 2.25
16 | CN1CC(c2ccc(/C=C/C(=O)Nc3ccccc3N)cc2)C(c2nc3ccccc3[nH]2)C1 (centres unmarked) [Example 11-3] | 2.47
17 | CN1CC(c2ccc(/C=C/C(=O)Nc3ccccc3N)cc2)C(c2nc3cc(Cl)ccc3[nH]2)C1 (centres unmarked) [Example 11-4] | 2.82
18 | CN1CC(c2ccc(/C=C/C(=O)Nc3ccccc3N)cc2)C(c2nc3cc(F)ccc3[nH]2)C1 (centres unmarked) [Example 11-6] | 1.96
19 | Nc1ccccc1NC(=O)/C=C/c1ccc(C2CN(C3CCOCC3)CC2C(=O)Nc2ccc(Cl)cc2)cc1 (centres unmarked) [Example 16-2] | 2.22
20 | CC(C)N1CC(C(=O)Nc2ccc(F)cc2)C(c2ccc(/C=C/C(=O)Nc3ccccc3N)cc2)C1 (centres unmarked) [Example 16-15] | 1.94
21 | CC(C)N1CC(C(=O)Nc2ccc(Br)cc2)C(c2ccc(/C=C/C(=O)Nc3ccccc3N)cc2)C1 (centres unmarked) [Example 16-16] | 1.53
22 | CC(C)N1CC(C(=O)Nc2ccc(Cl)cc2)C(c2ccc(/C=C/C(=O)Nc3ccccc3N)cc2)C1 (centres unmarked) [Example 16-17] | 2.31
23 | Nc1ccccc1NC(=O)/C=C/c1ccc(C2CN(C3CCOCC3)CC2C(=O)Nc2ccc(Cl)cc2)cc1 (centres unmarked) [Example 16-20] | 1.88
24 | CCN1CC(C(=O)Nc2ccc(Cl)cc2)C(c2ccc(/C=C/C(=O)Nc3ccccc3N)cc2)C1 (centres unmarked) [Example 21-6] | 1.67
25 | COCCN1CC(C(=O)Nc2ccc(Cl)cc2)C(c2ccc(/C=C/C(=O)Nc3ccccc3N)cc2)C1 (centres unmarked) [Example 21-15] | 2.52
26 | CC(C)(O)CN1CC(C(=O)Nc2ccc(Cl)cc2)C(c2ccc(/C=C/C(=O)Nc3ccccc3N)cc2)C1 (centres unmarked) [Example 31-8] | 2.30
27 | CC(C)(C)N1CC(C(=O)Nc2ccc(F)cc2)C(c2ccc(/C=C/C(=O)Nc3ccccc3N)cc2)C1 (centres unmarked) [Example 36-5] | 2.15
28 | CN1CC(C(=O)Nc2ccc(F)cc2)C(c2ccc(/C=C/C(=O)Nc3ccccc3N)nc2)C1 (centres unmarked) [Example 73-2] | 1.54
29 | CN1CC(C(=O)Nc2ccc(F)cc2)C(c2ccc(/C=C/C(=O)Nc3ccccc3N)cc2F)C1 (centres unmarked) [Example 85-4] | 1.92
